In test [1] the target is zfGR (Danio rerio, UniProt Q1XHK0). As to the kind of experiment: Whole-cell ligand competition assay with [3H]-dexamethasone, UMLN-zfGR cells. Format: binding, zebrafish. The note with it: for RBA (relative binding affinity): UMLN-zfGR, DEX = 100. As for the experimental part:
(§1) After 3 h, unbound material was aspirated, and cells were washed three times with cold PBS in order to remove additional unbound material. Then, 150 μl of lysis buffer (250 mM Tris phosphate pH 7.8, 0.1% triton X-100) was added and plates were shaked for 5 min. 50 μl of the total cell lysate was mixed with of 50 μl of LSC-cocktail (Emulsifier-Safe, Perkin Elmer) and [3H] bound radioactivity was liquid scintillation counted (MicroBeta trilux, Perkin Elmer). Protein concentration of 50 μl of the total cell lysate was measured by Bio-Rad protein assay and used to normalize bound radioactivity values expressed in dpm. Results were plotted as measured dpm versus concentration of tested compound. […] All the experiments were performed in quadruplicates and in at least three independent experiments.
(§2) For ligand binding assays, dose-response curves were also fitted using GraphPad Prism.

Test [2] deals with T1, hGR (Homo sapiens, UniProt P04150).
T1 sequence (P04150 1-777): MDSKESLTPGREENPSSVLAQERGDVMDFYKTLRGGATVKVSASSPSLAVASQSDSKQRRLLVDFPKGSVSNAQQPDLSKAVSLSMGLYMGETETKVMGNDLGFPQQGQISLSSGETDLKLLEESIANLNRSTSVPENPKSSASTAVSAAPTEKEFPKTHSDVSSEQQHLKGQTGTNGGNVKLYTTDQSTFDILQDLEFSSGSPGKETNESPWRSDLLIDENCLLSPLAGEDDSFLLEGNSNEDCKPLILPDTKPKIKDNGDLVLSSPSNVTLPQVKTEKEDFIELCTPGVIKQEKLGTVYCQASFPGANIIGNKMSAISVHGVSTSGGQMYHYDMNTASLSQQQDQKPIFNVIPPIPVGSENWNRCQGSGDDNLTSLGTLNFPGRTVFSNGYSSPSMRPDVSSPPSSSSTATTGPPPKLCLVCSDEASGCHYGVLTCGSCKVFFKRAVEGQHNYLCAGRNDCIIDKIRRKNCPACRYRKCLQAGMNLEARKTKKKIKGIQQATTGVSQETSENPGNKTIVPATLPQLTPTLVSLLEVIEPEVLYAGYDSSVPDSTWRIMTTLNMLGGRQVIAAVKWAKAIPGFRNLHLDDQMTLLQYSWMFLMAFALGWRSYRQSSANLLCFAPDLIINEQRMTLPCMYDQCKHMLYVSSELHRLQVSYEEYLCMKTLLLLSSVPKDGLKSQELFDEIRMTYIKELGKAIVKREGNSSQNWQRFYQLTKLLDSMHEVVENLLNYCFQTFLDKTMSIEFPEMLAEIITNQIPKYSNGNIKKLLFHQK
Kind of test: Whole-cell ligand competition assay with [3H]-dexamethasone, HMLN-hGR cells. On the set-up: expressed in transfected cells. The following applies: for RBA (relative binding affinity): HMLN-hGR, DEX = 100; for IC50: HMLN-hGR whole cells, 1 nM [3H]-DEX as tracer, 3 h. The test is classed as binding. As for the experimental part:
as §1, §2

Where two headings read alike, the source gives them in different places.

On to `CSCC(=O)C1C(C)CC2C3CCC4=CC(=O)C=CC4(C)C3(F)C(O)CC21C` (stereo not drawn) [RU24782], for which the IC50 (usually the concentration that inhibits the measured activity by half) in test [1] turned out to be 109 nM. Further, the “RBA (relative binding affinity)” value in test [2] was found to be 13.1.
`C[C@]12CCC(=O)C=C1CC[C@@H]1[C@@H]2[C@@H](O)C[C@]2(C=O)[C@@H](C(=O)CO)CC[C@@H]12` [aldosterone]: the figures for the IC50 in test [1] and in test [2] were 1370 nM and 794 nM, respectively. Further, the “RBA (relative binding affinity)” value in test [1] was found to be 0.226.
On to `CCOC1=CC2=C(C)CC3C(C(O)CC4(C)C3CC(C)C43OCOC34COCO4)C2(C)CC1` (stereo not drawn) [forbimenol], for which the IC50 in test [1] (UMLN-zfGR whole cells, 1 nM [3H]-DEX as tracer, 3 h, read-out: IC50) was determined as 539 nM; in test [2] it was 409 nM. Also, the “RBA (relative binding affinity)” value in test [1] is on record as 0.58; in test [2] it was 1.41.

The values above are taken from publication PMC10466050, “A comparative study of human and zebrafish glucocorticoid receptor activities of natural and pharmaceutical steroids” (Frontiers in Endocrinology, 2023).
